Laboratory results as given in the BET-seq Pho4 binding data (Le et al. 2018).
This is one part of the list. The energies were worked out here from pooled read counts, against the library average; single values are noisy.

What follows are sequences tested against T1, Pho4 (S. cerevisiae) (UniProt P07270) (assay: relative binding free energy (BET-seq); higher = weaker binding). Conditions: reference: library average.
T1 sequence: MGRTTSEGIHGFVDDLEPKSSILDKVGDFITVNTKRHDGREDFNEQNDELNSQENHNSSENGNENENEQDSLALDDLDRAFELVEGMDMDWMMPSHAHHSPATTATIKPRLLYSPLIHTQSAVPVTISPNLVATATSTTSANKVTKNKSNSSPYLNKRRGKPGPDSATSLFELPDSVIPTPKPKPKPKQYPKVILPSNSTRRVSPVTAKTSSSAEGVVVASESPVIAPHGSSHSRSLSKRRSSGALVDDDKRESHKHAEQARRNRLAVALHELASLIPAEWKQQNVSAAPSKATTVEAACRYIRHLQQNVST

Sequence	relative binding free energy [kJ/mol]
AGGTGCACGTGTAGAA	-0.46
TGTTCCACGTGCGGGT	0.293
GATGTCACGTGATTAG	1.67
TATGTCACGTGCGTAG	0
TTTCACACGTGTTTAG	0.335
GTGTGCACGTGCGAAG	-0.0418
TATATCACGTGTGTAA	0.879
GGTTACACGTGTATAA	1.3
GCGGTCACGTGAATGT	1.46
TGAGTCACGTGATGGG	1.13
TCTGTCACGTGGTGAA	0.167
AAATCCACGTGTGGTG	0.711
GATGACACGTGGGTCG	-0.669
TAGAGCACGTGTAGGG	-0.628
TGAAGCACGTGGTGGT	0.0837
TTTGACACGTGTCAGG	-0.126
TGTCTCACGTGTTCAT	1
GGCTTCACGTGTTCTG	0.837
CGGGGCACGTGTGCGC	-0.753
GTATTCACGTGCAGTT	0.879
GTGGGCACGTGGAACA	0
TTGAGCACGTGTTTAT	-0.293
TTCGGCACGTGCGGAG	-0.167
TATGTCACGTGGCAGG	-0.167
TTATGCACGTGTTACT	-0.586
GGGTTCACGTGTGACT	1.76

Sequence	relative binding free energy [kJ/mol]
GTTCGCACGTGGCGGG	0
ACTCGCACGTGTTTGT	0.0418
TATGGCACGTGACTTG	0.377
CTGGTCACGTGCTGAG	0.837
TGAGGCACGTGGTCGA	-0.586
AGCGGCACGTGGGTTT	-0.46
TGCTACACGTGGCTGG	0.628
TGTGGCACGTGACAGG	-0.0418
TGGAGCACGTGTGGCT	-0.293
TCCAACACGTGGGGGT	-0.126
GTTTTCACGTGGGCTC	1.46
GTGTTCACGTGCGCGG	0.879
CTAGTCACGTGTGGAT	-0.126
GCGTGCACGTGGGTTG	-0.502
GTTTACACGTGATTTT	1.13
GTTGACACGTGGCTGT	0.209
GTGCGCACGTGTACGG	-0.0837
GTTACCACGTGAGGAT	1.38
AGTTACACGTGTTTTA	0.628
ATGAACACGTGATTTT	0.586
TTTGTCACGTGGCGGG	0.544
CGGCACACGTGGAGGG	-0.251
ATAGTCACGTGAAGGG	1.51
TAGCGCACGTGGTTAT	-0.711
GGTTTCACGTGGCCGT	1.42
GACGTCACGTGGTATT	1.21

Sequence	relative binding free energy [kJ/mol]
TTTCACACGTGATTTT	1.21
TGCAGCACGTGAGTGG	0.418
GGAGCCACGTGTGGGT	0.293
AGTAGCACGTGTGTAG	-0.418
AAGTTCACGTGGCGTA	1.38
AATTGCACGTGTGTAT	-0.0418
AGATACACGTGATTGT	0.0837
TTATACACGTGGGGTG	-0.962
GTTATCACGTGCTGGC	1.05
ACGTTCACGTGTAAGT	1.13
GTGGGCACGTGATCTG	0.418
GTGTACACGTGGCGAA	0.0837
ATGGGCACGTGGTAGA	-0.837
AAAGTCACGTGTTGTG	0.628
TGTATCACGTGGCGAA	0.167
TTAGTCACGTGGCTAA	-0.293
TGGGCCACGTGTGGCT	-0.377
TGCGGCACGTGCGGTA	-0.753
TTGTGCACGTGGTGCT	-0.167
ACTGGCACGTGGGATA	-1.13
CTTAGCACGTGGTTTA	-0.544
TGGTGCACGTGGGTTG	-0.46
ACGGGCACGTGTGAGG	-0.46
AGATGCACGTGTTAGG	0.126
AAAGTCACGTGAAAGG	1.67
AGGTGCACGTGGAGTA	-0.293

Sequence	relative binding free energy [kJ/mol]
TATTGCACGTGGAGTG	0.0837
TCACTCACGTGTGGTG	1.3
AGTTTCACGTGCATTA	0.837
GTATGCACGTGATTTC	0.962
GAAGGCACGTGAGGGA	0.0418
TATGACACGTGGATGG	-0.335
GAAGGCACGTGGTGTA	-0.628
GTGTGCACGTGGTAGA	-0.209
GTGTCCACGTGTGTCG	0.293
ATTAGCACGTGAGTGG	0.628
GGGACCACGTGGAGGG	-0.335
CTTAGCACGTGGGTAT	-0.92
TATGGCACGTGGTTCT	-0.335
TCTGACACGTGATTGT	0.46
GGTAGCACGTGAGCAG	1
CTCGTCACGTGAGTTG	1.97
GGAGTCACGTGTGATC	1.05
TGAGGCACGTGTTTTC	-0.293
ATAAACACGTGGTTGA	-0.0418
AGGGTCACGTGCGATG	0.795
GTTTGCACGTGTTAGG	0.586
GATTTCACGTGTGAGT	2.13
TTTATCACGTGAGCTG	0.879
ATTCGCACGTGGGATA	-0.669
AAGGGCACGTGTTGCG	-0.669
TGCGGCACGTGTAATG	0.251

Sequence	relative binding free energy [kJ/mol]
AGTGACACGTGCTTTT	-0.544
GTCTACACGTGGTGGT	0.586
AATCACACGTGTTGTT	0.669
TTTGTCACGTGCAGAC	0.753
GGTTTCACGTGTGCGT	1.13
ACGTGCACGTGGTATA	-0.418
ATTGACACGTGTGAGG	-0.628
GTCGCCACGTGGAGGT	0.126
TAGTACACGTGGTCAG	-0.126
GAAAGCACGTGTCGGG	0.251
GGTATCACGTGGTGCG	0.335
TCGTTCACGTGGCGGT	1.13
TAAAACACGTGGGGGC	0.167
TGATGCACGTGTATTA	0.126
ATATGCACGTGTGATA	0.209
GTGTGCACGTGCTGTT	0.251
CTGGTCACGTGTAGTT	0.795
ATCTACACGTGGGTAG	0.167
GCTGGCACGTGTTGCT	-0.0837
TTTGTCACGTGGCTTA	-0.418
CTAATCACGTGTCGGT	1.42
AGTTGCACGTGTGGAA	-0.0418
AATTACACGTGTGGAA	0.837
TATATCACGTGGTGTA	0.418
GATTGCACGTGGGGAT	-0.0837
TTGTGCACGTGTTTTC	0.293

Sequence	relative binding free energy [kJ/mol]
GTGATCACGTGCTGTT	-0.0418
GAATGCACGTGAACGG	1.88
GAAGGCACGTGTGGTA	0.209
TGTCGCACGTGGTAGT	-0.502
TGAGGCACGTGTGTGC	-0.628
TCGTTCACGTGTGCGG	0.962
TCTGTCACGTGGTTGC	0.0418
TTTGTCACGTGATTAA	0.795
CAGAGCACGTGGAGTT	0.167
AGTTGCACGTGGGCTG	-0.209
TAAGTCACGTGGGGCT	-0.377
GTGTGCACGTGAGATA	1.59
CGTAGCACGTGTGCAG	-0.209
GGGAACACGTGTTGGT	0.544
CTTTGCACGTGTTTTA	0.293
TTGTACACGTGATTAT	0
GCGGTCACGTGTACGT	0.92
ATGGACACGTGTATGG	-0.251
CTTAGCACGTGTATTG	-0.418
TTTTTCACGTGGGAAG	1.13
TTAGGCACGTGGGACA	-1.09
GGTGGCACGTGATTAT	0.251
TCTGACACGTGTTGTG	-0.502
TAAGACACGTGGTATT	-0.418
TTTTGCACGTGAGGGC	0.962
ATTTTCACGTGATTCG	0.335

Sequence	relative binding free energy [kJ/mol]
TGGGTCACGTGGGGTT	0.0837
GGTGCCACGTGAGTAT	0.544
GGGGGCACGTGTTGAT	0.251
GGGGTCACGTGGGGGT	0.126
TGTAGCACGTGAAGCT	0.628
GTTAGCACGTGATTGG	0.711
GACGGCACGTGGTATT	-0.293
GTTGGCACGTGGCGAA	-0.167
AGGCTCACGTGTATTG	1.09
GGTGACACGTGTACGT	0.377
TATATCACGTGAGTGA	1.05
GAATGCACGTGTGTTT	0.711
AACAGCACGTGTTGGG	-0.251
GACGTCACGTGATTGT	1.46
GCGGGCACGTGCATGT	-0.669
AATTACACGTGTATGT	0.0837
AGCTGCACGTGATTGG	0.0418
TTACACACGTGGGATG	-0.418
GTATTCACGTGGCAAT	1.21
TGGTACACGTGAGGGG	1.13
AGTGTCACGTGCAGTA	-0.502
AGTGGCACGTGTCGGC	0.209
TTGGTCACGTGGCGAT	-0.0418
GTATACACGTGTCAGT	0.544
GGGGGCACGTGCTGTT	-0.669
TTTTGCACGTGAGGAT	0.46

Sequence	relative binding free energy [kJ/mol]
TTTTTCACGTGGGGGG	1.63
TCCGGCACGTGTGGAG	0
ACTGTCACGTGTGGGA	0.586
TGGCACACGTGGTATA	0.209
AATAGCACGTGGCAGT	-0.335
TTTAACACGTGGCGTC	0.126
TCATGCACGTGTAGGA	0
TAAGACACGTGGGTGC	-0.335
TGGCGCACGTGGGCAG	-0.879
AACTTCACGTGTTGTT	1.17
GCTGTCACGTGGGTGC	-0.377
AGTATCACGTGATGAT	0.711
GTTCGCACGTGCGTTG	0.126
TGACTCACGTGAGTAT	1.88
AGGGTCACGTGCTGGC	-0.0418
TAAAACACGTGGGTTT	-0.628
AAGGTCACGTGGATCG	0.209
CTTTGCACGTGAGTAG	0.753
GGGGTCACGTGGATGC	0.377
TTATTCACGTGTAGTA	0.795
GGGGGCACGTGTGCGT	-0.418
GGCTGCACGTGGTGAA	0.586
ATTACCACGTGTTTTG	0.418
TAAGTCACGTGTAATT	0.628
ATAATCACGTGCTTGG	0.167
TTAGGCACGTGGCGTT	-0.669

Sequence	relative binding free energy [kJ/mol]
TGCCGCACGTGTGGTG	-0.544
GAGGGCACGTGAGTTA	0.879
GGGATCACGTGTGGAA	1.38
ATTTACACGTGTCCGT	0.586
TGGGCCACGTGGGTTG	-0.795
AGGGGCACGTGGGGGA	-0.795
GTCGACACGTGAGGTG	0.753
CTAGACACGTGTTTGT	-0.251
TTCAGCACGTGTTTTT	-0.167
TTGTACACGTGTAGAG	0.46
GGTAACACGTGGACGG	0.0418
GTGTACACGTGTGATT	0.711
TGTATCACGTGTTCTC	1.88
CCATTCACGTGGTGGG	0.418
ATGCTCACGTGTTGTA	0.711
GTGGGCACGTGGTATA	-0.418
TTTTTCACGTGTTACG	1.76
GGGGTCACGTGGGACG	0.753
AGGTGCACGTGTGCGA	-0.586
TTAATCACGTGTAAGG	1
AGGGACACGTGAGTGA	1.13
CCAGGCACGTGTGTGG	-0.669
